Laboratory results: PubChem BioAssay AID485360 (National Center for Advancing Translational Sciences (NCATS), 2010)
Out of some 230,000 compounds screened, about 1,500 (0.65%) were called active. The shares of active, inactive and inconclusive entries below differ from those in the screen. Calls come from the whole dose curve; as a rule, active = well fitted inhibition curve with a large enough effect; inconclusive = small, poorly fitted or top-dose-only effect; inactive = no such curve, though single readings can be large or run the other way. Potencies beside an inconclusive call are fits to weak or partial responses and may not hold up.

Target: Lethal(3)malignant brain tumor-like protein 1 (Homo sapiens) (UniProt Q9Y468)
UniProt Q9Y468, sequence (Q9Y468 whole entry, looked up): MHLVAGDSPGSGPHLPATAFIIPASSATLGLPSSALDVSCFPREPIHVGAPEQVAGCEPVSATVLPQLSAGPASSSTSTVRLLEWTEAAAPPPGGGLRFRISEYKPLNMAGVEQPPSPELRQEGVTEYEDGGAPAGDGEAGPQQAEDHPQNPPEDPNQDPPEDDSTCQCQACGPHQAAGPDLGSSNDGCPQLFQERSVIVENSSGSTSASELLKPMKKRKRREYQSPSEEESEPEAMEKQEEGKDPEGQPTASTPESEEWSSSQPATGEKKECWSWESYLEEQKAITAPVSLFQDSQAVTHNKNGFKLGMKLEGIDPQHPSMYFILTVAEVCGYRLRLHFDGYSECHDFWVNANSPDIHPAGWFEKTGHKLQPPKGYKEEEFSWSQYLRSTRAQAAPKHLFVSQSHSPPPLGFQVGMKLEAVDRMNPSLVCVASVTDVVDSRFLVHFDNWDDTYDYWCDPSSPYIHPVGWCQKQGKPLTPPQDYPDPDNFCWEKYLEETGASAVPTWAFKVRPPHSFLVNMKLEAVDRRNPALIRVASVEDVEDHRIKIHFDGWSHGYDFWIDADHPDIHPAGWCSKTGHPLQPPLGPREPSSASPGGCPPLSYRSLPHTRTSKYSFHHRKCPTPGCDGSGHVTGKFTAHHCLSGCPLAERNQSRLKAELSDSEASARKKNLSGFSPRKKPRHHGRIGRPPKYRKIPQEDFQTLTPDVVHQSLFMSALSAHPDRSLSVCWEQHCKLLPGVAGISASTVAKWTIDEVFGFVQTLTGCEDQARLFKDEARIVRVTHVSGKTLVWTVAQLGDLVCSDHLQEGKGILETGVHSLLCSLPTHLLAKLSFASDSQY
Assay: qHTS Assay for the Inhibitors of L3MBTL1; note: nearly all actives have a fitted effect of over 60% in size
Settings: AlphaScreen L3MBTL1–H3K9me1 peptide binding; activity, negative = inhibition: at 57.1 µM (top of the series)
In short: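 L3MBTL1 (50 nM) pre-complexed 30 min with biotinylated H3(1-15)K9me1 peptide (75 nM), then compounds added for 30 min at room temperature; AlphaScreen streptavidin donor/nickel chelate acceptor beads (10 ug/mL final) read after 30 min dark incubation.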
% is set by controls: 0 for no effect and ±100 for the full control effect; potency is the fitted concentration of half-maximal effect; tags give direction and shape of the fitted curve.

| SMILES | Potency | activity, negative = inhibition |
| --- | --- | --- |
| COc1ccc(-c2nc3c4ccccc4ccn3c2CN2CCCCC2)cc1OC | inconclusive: 28.2 µM [inhibitor, single point] | – |
| CCN(CC)S(=O)(=O)c1ccc(N2CCOCC2)c(NC(=O)c2c3c(nc4ccccc24)CCC3)c1 | active: 28.2 µM | – |
| CC(=O)C1C(=O)C=C(c2cccs2)CC1c1ccccc1 (centres undefined) | inconclusive: 10 µM [inhibitor, partial curve] | – |
| Cc1ccccc1CSCC(=O)NC(=O)NCc1ccco1 | inconclusive: 39.8 µM [inhibitor, single point] | – |
| COc1cc(OC)c([N+](=O)[O-])cc1/C=N/NC(=O)c1ccncc1 | inconclusive: 31.6 µM [inhibitor, single point] | – |
| CN(C)/C=N/c1nccc(-c2cccs2)n1 | inconclusive: 0.1 µM [inhibitor, full curve, poor fit] | – |
| Cc1ccccc1/C=N/N1CCN(c2ccccc2)CC1 | inconclusive: 12.6 µM [inhibitor, partial curve] | – |
| FC(F)(F)c1ccc2c(c1)N1CCCC1CN2 (centres undefined) | inconclusive: 3.16 µM [inhibitor, full curve] | – |
| N#CC1=C(N)Oc2c(sc3ccccc23)C1c1ccco1 (centres undefined) | inconclusive: 15.8 µM [inhibitor, partial curve] | – |
| Cc1ccc(Cc2cnc(N)s2)o1 | inconclusive: 31.6 µM [inhibitor, single point] | – |
| CCN(C(=O)COc1cccc2cccnc12)C1CCS(=O)(=O)C1 (centres undefined) | – | inactive: -13.1% |
| Cc1occc1C(=O)Nc1ccc(S(=O)(=O)N2CCN(C)CC2)cc1 | – | inactive: -4.56% |
| COc1ccc(CC(=O)O/N=C(\N)c2cccc([N+](=O)[O-])c2)cc1 | inconclusive: 0.708 µM [inhibitor, single point] | – |
| C/C(CCc1ccc2c(c1)OCO2)=N\NC(=O)c1ccc(C)cc1C | inconclusive: 5.01 µM [inhibitor, full curve, poor fit] | – |
| O=C(O)c1ccc(-c2ccc(/C=C3\NC(=O)N(Cc4ccc(Cl)cc4)C3=O)o2)cc1 | inconclusive: 39.8 µM [inhibitor, single point] | – |
| C[C@H](NC(=O)c1nc[nH]c1C(=O)NCCCCCNC(=O)OC(C)(C)C)C(=O)OCc1ccccc1 | inconclusive: 0.631 µM [inhibitor, single point] | – |
| COc1ccc(OC)c([N+](=O)[O-])c1C(N)=O | inconclusive: 25.1 µM [inhibitor, single point] | – |
| CCOc1ccc(NC(=O)CC2NCCNC2=O)cc1 (centres undefined) | inconclusive: 6.31 µM [inhibitor, single point] | – |
| COc1ccccc1/C=C/C(=O)OCC(=O)N1CCN(S(=O)(=O)c2ccc(C)cc2C)CC1 | inconclusive: 5.62 µM [inhibitor, single point] | – |
| CCN(CC)c1ccc(NC(=O)C2CC3CCC2C3)cc1 (centres undefined) | inconclusive: 31.6 µM [inhibitor, single point] | – |
| CN(CC(=O)NCC1CCCCC1)CC(=O)Nc1ccc(F)cc1 | – | inactive: 2.11% |
| O=c1oc2c(O)c(O)cc3c(=O)oc4c(O)c(O)cc1c4c23 | – | inconclusive: -97.4% [inhibitor] |
| O=C1C=C(c2ccc(C(=O)O)cc2)C[C@@H](c2ccc3c(c2)OCO3)C1 | inconclusive: 31.6 µM [inhibitor, single point] | – |

| SMILES | Potency | activity, negative = inhibition |
| --- | --- | --- |
| FC(F)(F)C(Oc1nc(Nc2ccc(Cl)cc2)nc(N2CCOCC2)n1)C(F)(F)F | – | inactive: 12.1% |
| CCOc1ccc(S(=O)(=O)N(CC(=O)N/N=C/c2ccc(-c3ccc([N+](=O)[O-])cc3)o2)c2ccccc2)cc1 | inconclusive: 6.31 µM [inhibitor, partial curve] | – |
| CCOc1cc(/C=N/NC(=O)C(C)Sc2ccccc2)ccc1O (centres undefined) | inconclusive: 0.631 µM [inhibitor, single point] | – |
| CN1c2ccccc2C(C)(C)C12C=Nc1c(ccc3ccccc13)O2 (centres undefined) | inconclusive: 35.5 µM [inhibitor, single point] | – |
| CCc1ccc2nc3sc(C(=O)Nc4nnc(CC)s4)c(N)c3cc2c1 | inconclusive: 39.8 µM [inhibitor, single point] | – |
| O=[N+]([O-])c1cccc(-c2ccc(CN3CCN(c4ccccc4)CC3)o2)c1 | inconclusive: 28.2 µM [inhibitor, single point] | – |
| CCOC(=O)N1CCN(S(=O)(=O)c2ccc(C(=O)Nc3nnc(CC)o3)cc2)CC1 | inconclusive: 25.1 µM [inhibitor, partial curve, poor fit] | – |
| Cc1ccccc1Nc1ccc(S(=O)(=O)N2CCOCC2)cc1[N+](=O)[O-] | inconclusive: 39.8 µM [inhibitor, partial curve] | – |
| O=C(C[n+]1cccc(C(=O)N/N=C/c2ccc(Br)cc2)c1)c1ccccc1 | – | inactive: -1.03% |
| CCOc1ccc(Nc2nc(N)nc(CN(C)C3CCCCC3)n2)cc1 | inconclusive: 39.8 µM [inhibitor, single point] | – |
| Cc1cc(NC(=O)CSCC(=O)N(c2cccc(Cl)c2)C(C(=O)NC2CCCCC2)c2ccc(O)c(O)c2)no1 (centres undefined) | – | inactive: -10.3% |
| Cc1ccc(-c2nc3ccccc3nc2NN)cc1 | – | inactive: 8.89% |
| CC(C)C(NS(=O)(=O)c1ccc2c(c1)Cc1cc(S(=O)(=O)NC(C(=O)O)C(C)C)ccc1-2)C(=O)O (centres undefined) | – | inactive: 8.41% |
| Cc1cccc(C)c1Nc1c(-c2ccccn2)nc2ccccn12 | inconclusive: 8.91 µM [inhibitor, partial curve] | – |
| COC(=O)C1=C(C)N(Cc2ccco2)C(=O)/C1=C\c1ccc(N(C)C)cc1 | – | inactive: -24% |
| Cn1cccc1/C=N/N1CCN(Cc2ccccc2)CC1 | – | inactive: -24.4% |
| O=C(Cc1c(F)cccc1Cl)Nc1cc(S(=O)(=O)N2CCOCC2)ccc1N1CCCC1 | – | inactive: -3.4% |
| CCNc1nc(NC(C)C)nc(OCCOC(=O)Nc2ccccc2)n1 | inconclusive: 8.91 µM [inhibitor, partial curve] | – |
| CCNS(=O)(=O)c1ccc(NC(=O)c2ccccc2SCCOC)cc1 | – | inactive: 3.94% |
| Cc1cccc(-c2oc3ccccc3c2C#CCCO)c1 | inconclusive: 6.31 µM [inhibitor, single point] | – |
| CCN(CC)S(=O)(=O)c1ccc(F)c(C(=O)NCCC(C)C)c1 | inconclusive: 6.31 µM [inhibitor, single point] | – |
| O=C1OC(c2ccccc2)=N/C1=C\C=C\c1ccco1 | inconclusive: 25.1 µM [inhibitor, single point] | – |
| CCOC(=O)Cc1cc(=O)c2c(=O)n(-c3ccccc3)[nH]c2[nH]1 | inconclusive: 39.8 µM [inhibitor, single point] | – |

| SMILES | Potency | activity, negative = inhibition |
| --- | --- | --- |
| COCCN(CCOC)C(=O)CSc1ccc(S(=O)(=O)N2CCN(C)CC2)cn1 | – | inactive: 3.23% |
| CC(=O)Nc1ccc(OCC(O)Cn2c3ccccc3c3ccccc32)cc1 (centres undefined) | inconclusive: 39.8 µM [inhibitor, single point] | – |
| Cc1ccccc1C(=O)Nc1ccc(N2CCN(C)CC2)nc1 | inconclusive: 31.6 µM [inhibitor, single point] | – |
| Cn1[nH]c(C(F)(F)F)c(C=Nc2ccc(Cl)cc2)c1=O | inconclusive: 0.1 µM [inhibitor, full curve, poor fit] | – |
| COc1ccc(NS(=O)(=O)c2csc(C(=O)Nc3ccccc3)c2)cc1 | inconclusive: 7.08 µM [inhibitor, single point] | – |
| CCOC(=O)c1c(C)oc2c1c1c(c3ccccc32)OCN(CCCC(=O)O)C1 | – | inactive: -11.3% |
| O=C(Oc1ccc(Br)cc1)c1n[nH]c(=O)c2ccccc12 | inconclusive: 0.112 µM [inhibitor, full curve, poor fit] | – |
| O=C1N(Cc2cccnc2)C[C@@H]2C[C@@H](c3cccc(Oc4ccccc4)c3)N3CCC[C@@]123 | – | inactive: -17.2% |
| Cc1cc(C)n(-c2nncc(-c3ccccc3)n2)n1 | inconclusive: 31.6 µM [inhibitor, single point] | – |
| O=C(Nc1sc2c(c1C(=O)NCc1ccco1)CCCC2)c1ccc2c(c1)OCO2 | inconclusive: 22.4 µM [inhibitor, single point] | – |
| CCOC(=O)Cc1csc(SCC(=O)Nc2sc3c(c2C(N)=O)CCC3)n1 | inconclusive: 28.2 µM [inhibitor, single point] | – |
| COC(=O)c1cc2ccsc2n1CC(=O)Nc1cc(C)cc(C)c1 | inconclusive: 6.31 µM [inhibitor, single point] | – |
| COCCNC(=O)Cn1c(=O)n(CCCCCC(=O)NCc2ccc3c(c2)OCO3)c(=O)c2sccc21 | – | inactive: 9.43% |
| CCn1ccnc1C(O)c1ccc(N(C)C)cc1 (centres undefined) | – | inactive: 0.244% |
| CNC(=S)N(Cc1ccc(OC)cc1)C1CC(=O)N(c2ccc(C(=O)OC)cc2)C1=O (centres undefined) | – | inactive: 4.88% |
| O=C(NNc1c(Cl)cccc1Cl)c1c(F)cccc1Cl | – | inactive: -11.8% |
| CCSc1ccc2nnc(-c3cccc(F)c3)n2n1 | inconclusive: 0.794 µM [inhibitor, single point] | – |
| Cn1cnnc1SCC(=O)Nc1ccccc1 | inconclusive: 5.62 µM [inhibitor, single point] | – |
| O=[N+]([O-])c1ccccc1Nc1ccccc1 | inconclusive: 35.5 µM [inhibitor, single point] | – |
| O=C(Nc1nc2ccccc2n1CCN1CCOCC1)c1cn(-c2ccccc2)nc1-c1ccccc1 | – | inactive: -18% |
| COc1ccccc1NC(=O)c1ccc(NC(=O)CSc2nc(N)cc(=O)[nH]2)cc1 | – | inactive: -2.24% |
| Cc1cc(-c2csc(NC(=O)c3ccc(=O)[nH]c3)n2)c(C)n1Cc1ccccc1 | inconclusive: 28.2 µM [inhibitor, single point] | – |
| COC(CNC(=O)c1ccc2c3c(onc13)-c1ccccc1C2=O)OC | inconclusive: 2.51 µM [inhibitor, full curve, poor fit] | – |
